About 14,000 (4.5%) of roughly 310,000 compounds showed an effect of 50% or more. The effect is printed as a negative number. The list shows a part of the results.
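Note: peak tail current of the secondary pulse compared with the same well before compound.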

human ether-à-go-go-related gene (hERG) potassium channel, sequence (Q12809 whole entry, looked up): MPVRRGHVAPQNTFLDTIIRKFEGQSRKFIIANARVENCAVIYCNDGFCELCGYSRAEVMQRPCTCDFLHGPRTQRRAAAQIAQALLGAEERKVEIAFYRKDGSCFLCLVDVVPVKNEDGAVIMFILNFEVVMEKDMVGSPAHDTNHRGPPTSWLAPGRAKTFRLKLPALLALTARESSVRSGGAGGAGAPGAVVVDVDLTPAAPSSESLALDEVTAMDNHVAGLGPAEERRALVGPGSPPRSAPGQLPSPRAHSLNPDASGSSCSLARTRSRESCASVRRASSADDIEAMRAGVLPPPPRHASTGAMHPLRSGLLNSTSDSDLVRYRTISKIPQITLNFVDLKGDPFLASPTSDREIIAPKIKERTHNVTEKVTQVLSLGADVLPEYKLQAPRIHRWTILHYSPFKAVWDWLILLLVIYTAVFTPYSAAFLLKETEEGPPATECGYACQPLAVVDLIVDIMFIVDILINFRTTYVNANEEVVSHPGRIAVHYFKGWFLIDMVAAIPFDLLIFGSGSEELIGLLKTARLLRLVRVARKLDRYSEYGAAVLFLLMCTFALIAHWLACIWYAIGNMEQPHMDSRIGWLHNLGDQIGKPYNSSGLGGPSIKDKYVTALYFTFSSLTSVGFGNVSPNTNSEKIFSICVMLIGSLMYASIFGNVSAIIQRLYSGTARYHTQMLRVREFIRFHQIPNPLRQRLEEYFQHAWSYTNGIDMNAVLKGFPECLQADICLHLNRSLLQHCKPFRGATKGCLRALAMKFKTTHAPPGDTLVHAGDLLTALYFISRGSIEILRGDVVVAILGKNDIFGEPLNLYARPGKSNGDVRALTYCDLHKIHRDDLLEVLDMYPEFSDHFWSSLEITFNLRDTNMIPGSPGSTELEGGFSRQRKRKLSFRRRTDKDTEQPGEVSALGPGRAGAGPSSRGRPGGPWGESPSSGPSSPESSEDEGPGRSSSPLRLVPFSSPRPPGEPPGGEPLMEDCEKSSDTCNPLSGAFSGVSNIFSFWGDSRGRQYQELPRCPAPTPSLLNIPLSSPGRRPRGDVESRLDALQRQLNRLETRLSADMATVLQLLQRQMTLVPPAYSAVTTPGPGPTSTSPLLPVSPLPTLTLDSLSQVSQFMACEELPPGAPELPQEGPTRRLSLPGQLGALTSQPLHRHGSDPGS

This test has as its target human ether-à-go-go-related gene (hERG) potassium channel (human, UniProt Q12809). Briefly: primary screen, population patch clamp on CHO cells stably expressing hERG.
`COc1ccc(CCn2c(N)c(C#N)c3nc4ccccc4nc32)cc1OC`: the “hERG current change (%, negative = inhibition) at 10uM” value is given as 4.14%. Take `Cc1cc(C(F)(F)F)c(C#N)c(SCC(=O)NC2CC2)n1`: the “hERG current change (%, negative = inhibition) at 10uM” value is -4.11%. Next, `N#Cc1cnn(CC2CCCCC2)c1N`: 14%; `O=C(CN(c1ccccc1)S(=O)(=O)c1ccccc1)N/N=C/c1ccco1`: -21.8%. On to `CCOC(=O)c1ccc(NC(=O)CSc2nc(C)nc3c2c(=O)n(C)c(=O)n3C)cc1`, for which the “hERG current change (%, negative = inhibition) at 10uM” value is -24.3%. For the molecule `CC1(C)OC1COc1c2occc2cc2ccc(=O)oc12` (centres unmarked), the “hERG current change (%, negative = inhibition) at 10uM” value is 9.88%. Regarding `Cc1ccc2c(c1)N(CC(=O)NC1CCCC(C)C1C)C(=O)c1cccnc1O2` (centres unmarked), the “hERG current change (%, negative = inhibition) at 10uM” value is recorded as -10.6%. Regarding `CCCCN(CC)Cc1c(O)ccc2c(-c3ccccc3)cc(=O)oc12`, the “hERG current change (%, negative = inhibition) at 10uM” value was -17.7%. Take `COC(=O)CSc1nc(-c2ccc(F)cc2)cc(C(F)(F)F)n1`: the “hERG current change (%, negative = inhibition) at 10uM” value was found to be 11.9%. With `OC1(c2ccccc2Cl)NN=C2CCCCCN21` (centres unmarked), the “hERG current change (%, negative = inhibition) at 10uM” value amounted to 14.9%. With `CCOC(=O)C1CCCN(C(=O)c2ccc3c(c2)N(C)C(=O)/C(=C/c2ccccc2Cl)S3)C1` (centres unmarked), the “hERG current change (%, negative = inhibition) at 10uM” value is recorded as -10.1%.

With `CCOc1ccc(NC(=O)CN(C)C(=O)CC(NC(=O)c2ccccc2)c2ccccc2)cc1OCC` (centres unmarked), the “hERG current change (%, negative = inhibition) at 10uM” value is given as -51.9%. Take `COc1ccc(C(=O)NCC(C)NC(=O)c2ccc(OC)c(Br)c2)cc1Br` (centres unmarked): the “hERG current change (%, negative = inhibition) at 10uM” value stood at 4.83%. As for `CCCc1nc2ccccc2c(C(=O)OC2CCOC2=O)c1CC` (centres unmarked), the “hERG current change (%, negative = inhibition) at 10uM” value was -15.1%. Next, `CS(=O)(=O)c1ccc(C(=O)Nc2cccc(-c3nc4ccccc4[nH]3)c2)cc1`: 16%; `O=C1c2ccccc2C(=O)N1CCCc1nc(-c2ccncc2)no1`: -3.72%.

Regarding `Cc1ccc(-n2c(C)cn(C(=O)c3ccccc3)c2=S)cc1`, the “hERG current change (%, negative = inhibition) at 10uM” value is -4.31%. For the molecule `O=C(COc1ncnc2ccc(Br)cc12)N1CCOCC1`, the “hERG current change (%, negative = inhibition) at 10uM” value is recorded as -4.95%. As for `Cc1cc(C)c(C)c(S(=O)(=O)N2CCNCC2)c1C`, the “hERG current change (%, negative = inhibition) at 10uM” value is listed as 49.5%. Consider `CCCCn1c(O)c(N=NC(=O)Cn2c(C(F)(F)F)nc3ccccc32)c2ccccc21`, for which the “hERG current change (%, negative = inhibition) at 10uM” value came out at 10.2%.

As to `O=C(Cc1ccccc1[N+](=O)[O-])Nc1ccc(S(=O)(=O)N2CCCC2)cc1`, the “hERG current change (%, negative = inhibition) at 10uM” value is on record as -4.46%. Turning to `C=CCc1ccc(OCCn2cncn2)c(OC)c1`, the “hERG current change (%, negative = inhibition) at 10uM” value is given as 7.93%. Next, `O=C(NNS(=O)(=O)c1ccccc1)c1cccc(F)c1`: 17.2%; `C/C(CC(=O)Nc1ccc(C)cc1C)=N\NC(=O)C(C)C`: 15.6%.

Turning to `S=C(Nc1ccccc1Cl)NC1CCC(NC(=S)Nc2ccccc2Cl)CC1` (centres unmarked), the “hERG current change (%, negative = inhibition) at 10uM” value is recorded as 20.9%. To `O=C(Nc1ccccc1)C1=C[C@@H](c2ccc(Br)cc2)C[C@@H](OCc2ccc(CO)cc2)O1` belongs 8.08%; to `COc1cc(OC)cc(C(=O)N2CCN=C2SCc2cccnc2)c1`, -21.6%. Consider `Nc1nc(-c2ccccc2)cn1N`, for which the “hERG current change (%, negative = inhibition) at 10uM” value was determined as 14.4%. For the molecule `CCOc1ccc(-n2c(Cc3cc(=O)[nH]c(=O)[nH]3)nnc2SC(C)C(=O)OC)cc1` (centres unmarked), the “hERG current change (%, negative = inhibition) at 10uM” value is 6.08%. Regarding `CN(C)C=O.O=[N+]([O-])c1cccc(COc2ncnc3cc([N+](=O)[O-])ccc23)c1`, the “hERG current change (%, negative = inhibition) at 10uM” value is on record as -36.5%.

For `CN(C)C(CNc1ncnc2sccc12)c1ccccc1` (centres unmarked), the “hERG current change (%, negative = inhibition) at 10uM” value is -2.38%. Turning to `Cc1cc(CNC(=O)CC2C(=O)NCCN2CC(c2ccccc2)c2ccccc2)on1` (centres unmarked), the “hERG current change (%, negative = inhibition) at 10uM” value was found to be 11.9%. As for `COc1ccc(NC(=O)C2C3C=CC4(O3)C2C(=O)N(CCN2CCCCC2)C4C(=O)NC2CCCC(C)C2C)cc1` (centres unmarked), the “hERG current change (%, negative = inhibition) at 10uM” value is 16.9%. Turning to `CCC(CC)C(=O)c1c[nH]c(C(=O)NCc2ccco2)c1`, the “hERG current change (%, negative = inhibition) at 10uM” value was -10.2%. In the case of `CN1/C(=C/C=C(/C#N)C(N)=O)C(C)(C)c2ccccc21`, the “hERG current change (%, negative = inhibition) at 10uM” value is recorded as -11%. To `COC(=O)c1cc2c(C(F)(F)F)nn(C)c2s1` belongs 9.18%; to `Cc1ccc(NC(=O)COCC(=O)Nc2ccc(C)cc2)cc1`, -7.9%.

In the case of `O=C(/C=C/c1ccc([N+](=O)[O-])cc1)NCC1CCCO1` (centres unmarked), the “hERG current change (%, negative = inhibition) at 10uM” value is reported as -12.8%.

As to `C/C(=N/NC(=O)CN1CCN(S(=O)(=O)c2ccc(C)cc2)CC1)c1ccco1`, the “hERG current change (%, negative = inhibition) at 10uM” value is listed as -53.7%. To `COc1ccc(N(C(=O)Cc2cccs2)C(C(=O)NC2CCCC2)c2ccncc2)cc1` (centres unmarked) belongs 10.2%; to `Cc1ccccc1OCC(=O)Nc1ccc(C(=O)Nc2ccccc2C(=O)O)cc1`, 6.65%; to `C=Cn1ccnc1P(=S)(c1nccn1C=C)C1CCCCC1`, -33.7%. With `COc1ccc(C2CC(c3ccccc3)=NN2C(=O)COC(=O)c2ccc(S(C)(=O)=O)cc2)cc1` (centres unmarked), the “hERG current change (%, negative = inhibition) at 10uM” value is listed as -0.642%.

As for `Cc1sc2ncnc(N3CCC(C(=O)Nc4ccc(S(N)(=O)=O)cc4)CC3)c2c1C`, the “hERG current change (%, negative = inhibition) at 10uM” value is -20.2%.
